The results in this text go back to article PMC12820563.

This is one part of the list. The list includes weakly bound sequences.

For the experiment, the target named is T1, MBP-FoxP3dN (UniProt Q99JB6).
T1 sequence: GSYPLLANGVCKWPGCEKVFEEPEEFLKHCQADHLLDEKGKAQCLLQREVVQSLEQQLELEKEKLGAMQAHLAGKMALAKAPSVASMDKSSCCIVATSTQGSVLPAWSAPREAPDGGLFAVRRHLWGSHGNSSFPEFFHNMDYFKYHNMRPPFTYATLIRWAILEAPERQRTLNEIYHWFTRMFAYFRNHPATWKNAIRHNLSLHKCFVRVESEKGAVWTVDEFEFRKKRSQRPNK
Nature of the experiment: PD-seq (MBP pull-down with sequencing). To be noted: 20 mM Tris-HCl pH 7.5, 100 mM NaCl, 1.5 mM MgCl2, 0.4 uM protein, 0.1 uM dsDNA library, 30 min, room temperature, amylose pull-down; high values mean tight binding; double strand, one strand shown.
Consider “GATGATTGTTCTCCCAGCTGATGAATTAAGATACTCGAGTAAACAAATTTTCCTAATCTTTCTGTTCAAGCGCCATCTAC”, for which the binding signal (RPM ratio (pull-down/input)) amounted to 0.78.

Turning to “GATGATTGTTCTCCCAGCTGATGAATTTTAAAGGTCGAGTAAACAAATTTTCCTAATCTTTCTGTTCAAGCGCCATCTAC”, the binding signal (RPM ratio (pull-down/input)) is 0.167.

Turning to “GATGATTGTTCTCCCAGCTGATGAATTTATTTCGTCGAGTAAACAAATTTTCCTAATCTTTCTGTTCAAGCGCCATCTAC”, the binding signal (RPM ratio (pull-down/input)) worked out at 2.99.

Regarding “GATGATTGTTCTCCCAGCTGATGAATTTTAATTGTCGAGTAAACAAATTTTCCTAATCTTTCTGTTCAAGCGCCATCTAC”, the binding signal (RPM ratio (pull-down/input)) amounted to 2.53.

As to “GATGATTGTTCTCCCAGCTGATGAATTTGCATCTTCGAGTAAACAAATTTTCCTAATCTTTCTGTTCAAGCGCCATCTAC”, the binding signal (RPM ratio (pull-down/input)) came to 7.16.

Consider “GATGATTGTTCTCCCAGCTGATGAATTGACTCCTTCGAGTAAACAAATTTTCCTAATCTTTCTGTTCAAGCGCCATCTAC”, for which the binding signal (RPM ratio (pull-down/input)) was determined as 0.393.

In the case of “GATGATTGTTCTCCCAGCTGATGAATTGAGTCTATCGAGTAAACAAATTTTCCTAATCTTTCTGTTCAAGCGCCATCTAC”, the binding signal (RPM ratio (pull-down/input)) was determined as 0.636.

For the sequence “GATGATTGTTCTCCCAGCTGATGAATTCTGCTACTCGAGTAAACAAATTTTCCTAATCTTTCTGTTCAAGCGCCATCTAC”, the binding signal (RPM ratio (pull-down/input)) stood at 2.1.

With “GATGATTGTTCTCCCAGCTGATGAATTGAACATCTCGAGTAAACAAATTTTCCTAATCTTTCTGTTCAAGCGCCATCTAC”, the binding signal (RPM ratio (pull-down/input)) stood at 0.513.

“GATGATTGTTCTCCCAGCTGATGAATTCGTAGTGTCGAGTAAACAAATTTTCCTAATCTTTCTGTTCAAGCGCCATCTAC”: the binding signal (RPM ratio (pull-down/input)) came out at 1.8.

For the sequence “GATGATTGTTCTCCCAGCTGATGAATTCGTGTGTTCGAGTAAACAAATTTTCCTAATCTTTCTGTTCAAGCGCCATCTAC”, the binding signal (RPM ratio (pull-down/input)) amounted to 1.9.

With “GATGATTGTTCTCCCAGCTGATGAATTCCTTGTTTCGAGTAAACAAATTTTCCTAATCTTTCTGTTCAAGCGCCATCTAC”, the binding signal (RPM ratio (pull-down/input)) turned out to be 0.413.

For the sequence “GATGATTGTTCTCCCAGCTGATGAATTTGCGCCATCGAGTAAACAAATTTTCCTAATCTTTCTGTTCAAGCGCCATCTAC”, the binding signal (RPM ratio (pull-down/input)) came out at 3.14.

For the sequence “GATGATTGTTCTCCCAGCTGATGAATTTGTCTAATCGAGTAAACAAATTTTCCTAATCTTTCTGTTCAAGCGCCATCTAC”, the binding signal (RPM ratio (pull-down/input)) is 2.93.

On to “GATGATTGTTCTCCCAGCTGATGAATTCTTATGTTCGAGTAAACAAATTTTCCTAATCTTTCTGTTCAAGCGCCATCTAC”, for which the binding signal (RPM ratio (pull-down/input)) was found to be 0.556.

“GATGATTGTTCTCCCAGCTGATGAATTTTGGTCGTCGAGTAAACAAATTTTCCTAATCTTTCTGTTCAAGCGCCATCTAC”: the binding signal (RPM ratio (pull-down/input)) was found to be 0.496.

As for “GATGATTGTTCTCCCAGCTGATGAATTTGTCACGTCGAGTAAACAAATTTTCCTAATCTTTCTGTTCAAGCGCCATCTAC”, the binding signal (RPM ratio (pull-down/input)) was 5.14.

“GATGATTGTTCTCCCAGCTGATGAATTGATCCCCTCGAGTAAACAAATTTTCCTAATCTTTCTGTTCAAGCGCCATCTAC”: the binding signal (RPM ratio (pull-down/input)) amounted to 0.286.

For the sequence “GATGATTGTTCTCCCAGCTGATGAATTCAGGATTTCGAGTAAACAAATTTTCCTAATCTTTCTGTTCAAGCGCCATCTAC”, the binding signal (RPM ratio (pull-down/input)) was determined as 0.289.

As for “GATGATTGTTCTCCCAGCTGATGAATTCCGCTGATCGAGTAAACAAATTTTCCTAATCTTTCTGTTCAAGCGCCATCTAC”, the binding signal (RPM ratio (pull-down/input)) amounted to 0.55.

Consider “GATGATTGTTCTCCCAGCTGATGAATTCTGAGGCTCGAGTAAACAAATTTTCCTAATCTTTCTGTTCAAGCGCCATCTAC”, for which the binding signal (RPM ratio (pull-down/input)) was determined as 0.422.

For the sequence “GATGATTGTTCTCCCAGCTGATGAATTCAGGTATTCGAGTAAACAAATTTTCCTAATCTTTCTGTTCAAGCGCCATCTAC”, the binding signal (RPM ratio (pull-down/input)) amounted to 0.944.

Turning to “GATGATTGTTCTCCCAGCTGATGAATTATTGTTATCGAGTAAACAAATTTTCCTAATCTTTCTGTTCAAGCGCCATCTAC”, the binding signal (RPM ratio (pull-down/input)) is 3.55.

Regarding “GATGATTGTTCTCCCAGCTGATGAATTTGCACCGTCGAGTAAACAAATTTTCCTAATCTTTCTGTTCAAGCGCCATCTAC”, the binding signal (RPM ratio (pull-down/input)) stood at 0.628.

As to “GATGATTGTTCTCCCAGCTGATGAATTCATTACGTCGAGTAAACAAATTTTCCTAATCTTTCTGTTCAAGCGCCATCTAC”, the binding signal (RPM ratio (pull-down/input)) amounted to 0.489.

“GATGATTGTTCTCCCAGCTGATGAATTATCCCTTTCGAGTAAACAAATTTTCCTAATCTTTCTGTTCAAGCGCCATCTAC”: the binding signal (RPM ratio (pull-down/input)) was found to be 0.303.

For the sequence “GATGATTGTTCTCCCAGCTGATGAATTGTCAATCTCGAGTAAACAAATTTTCCTAATCTTTCTGTTCAAGCGCCATCTAC”, the binding signal (RPM ratio (pull-down/input)) stood at 0.498.

For the sequence “GATGATTGTTCTCCCAGCTGATGAATTGCCTAAATCGAGTAAACAAATTTTCCTAATCTTTCTGTTCAAGCGCCATCTAC”, the binding signal (RPM ratio (pull-down/input)) is 0.462.

Consider “GATGATTGTTCTCCCAGCTGATGAATTCTAACAATCGAGTAAACAAATTTTCCTAATCTTTCTGTTCAAGCGCCATCTAC”, for which the binding signal (RPM ratio (pull-down/input)) was determined as 0.637.

“GATGATTGTTCTCCCAGCTGATGAATTTTCACGCTCGAGTAAACAAATTTTCCTAATCTTTCTGTTCAAGCGCCATCTAC”: the binding signal (RPM ratio (pull-down/input)) came to 0.323.

Regarding “GATGATTGTTCTCCCAGCTGATGAATTCCCAGGATCGAGTAAACAAATTTTCCTAATCTTTCTGTTCAAGCGCCATCTAC”, the binding signal (RPM ratio (pull-down/input)) stood at 0.145.

Turning to “GATGATTGTTCTCCCAGCTGATGAATTGACCTACTCGAGTAAACAAATTTTCCTAATCTTTCTGTTCAAGCGCCATCTAC”, the binding signal (RPM ratio (pull-down/input)) was found to be 0.329.
